Measured values published in PubChem BioAssay (NCI).
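Interpolation was linear, between the two tested concentrations surrounding the appropriate level; five concentrations were tested over 48 hours in 96-well plates. GI50: concentration for 50% inhibition of growth. TGI: concentration producing complete growth inhibition.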

tested on: NCI-H322M lung; assay: NCI tumour cell line growth inhibition, 48 h

Compound | TGI | GI50
O=[N+]([O-])c1cc(/C=N\NS(=O)(=O)c2ccc(Cl)cc2)c(O)c([N+](=O)[O-])c1 | > 100 µM | 
Cc1ccc(N=C/C=C(\Nc2ccc(C)cc2)c2ccc3ccccc3c2)cc1 | 7.55 µM | 
CC(=O)CC(=O)N1CCSC1=S | > 10 µM | 
O=C1OCC2=C1C(c1cccc(C(F)(F)F)c1)c1cc3c(cc1N2CCO)OCCO3 (stereo not given) | > 33.3 µM | 2.3 µM
CN1CCN(Cc2ccc(NC(=O)c3[nH]ncc3Nc3ncnc4[nH]ccc34)cc2)CC1 | 2.03 µM | 0.381 µM
CC(C)N(C(=O)C12C3C4C5(C(=O)O)C(C1C35I)C42C(=O)O)C(C)C (stereo not given) | > 100 µM | 
c1ccc2c(Nc3ncco3)cccc2c1 | > 10 µM | 
CC(C)=Cc1cc(C)c2ccc(C)c3c2c1C(C)=C(O)C3=O | 98.7 µM | 25.5 µM
COc1cc2c(cc1OC)C(C(CBr)CBr)N(C1CCCC1)CC2 (stereo not given) | > 100 µM | 
CCCCC#Cc1c(I)n(C2OC(CO[Si](C)(C)C(C)(C)C)C3OC(C)(C)OC32)c(=O)n(C(=O)c2ccccc2)c1=O (stereo not given) | 30.1 µM | 15.7 µM
NC1=NC(SCc2ccccc2CCl)c2ncn(Cc3ccccc3CCl)c2N1 (stereo not given) | 6.09 µM | 2.33 µM
COC(=O)C1C(=O)CC(C)(O)C(C(=O)OC)C1c1ccc(N(C)C)cc1 (stereo not given) | > 100 µM | 
Cc1cc2c(c(C(=O)NCC(=O)O)c1)Oc1c(cc(C)cc1C(=O)NCC(=O)O)S2 | > 100 µM | 
COc1ccc(CSC2=C(C#N)C(=O)NC3(CCCCC3)S2)cc1 | > 100 µM | 
COC(=O)CC1(O)C=CC(=O)C=C1 | 30.3 µM | 
Cn1c2ccccc2n2c3ncccc3c(=O)cc12 | > 100 µM | 
O=C1Nc2cccc(Cl)c2/C1=C\c1c(-c2ccccc2)nc2n1CCS2 | 57.8 µM | 
COc1c(C)c(C/C=C(\C)CCCC(C)CCCC(C)CCCC(C)C)c(OC)c2ccccc12 (stereo not given) | > 100 µM | 
O=c1cc(-c2ccccc2)[nH]c2c1CCCC2 | > 100 µM | 3.97 µM
O=C1C=CC(=O)c2c1ccc1c3ccccc3n(Cc3ccccc3)c21 | > 100 µM | 
CCOC(=O)[C@@]12C(C)=CC(=O)O[C@]1(C)C1C(=O)NC(=O)C12 (stereo not given in full) | > 100 µM | 
CCCC1=C(OC)C(=O)c2c(C)cc(Cl)nc2C1=O | 28.4 µM | 
COc1ccc(OC)c2c(C)ccnc12 | > 100 µM | 
COc1cc(F)c(F)cc1C(=O)c1cnc(NC2CCN(S(C)(=O)=O)CC2)nc1N | > 22.6 µM | 4.52 µM
CCCCNS(=O)(=O)c1ccc(-c2ccc3c(c2)-c2ccc(S(=O)(=O)NCCCC)cc2S3(=O)=O)cc1 | > 100 µM | 
COc1ccc(C2NN=C3c4ccccc4CCC32)cc1 (stereo not given) | > 100 µM | 44.2 µM

Compound | TGI | GI50
CCC[CH2][Sn]([CH2]CCC)([CH2]CCC)/[C](=C/[Si](C)(C)c1ccccc1)c1ccc2c(c1)OCO2 | > 100 µM | 28 µM
Cc1nc2ccc(Cl)cc2c2c1CCO2 | > 100 µM | 
COc1cc2c3c(n(C)c(=O)c2cc1OC)-c1cc2c(cc1/C3=C\CCCCCBr)OCO2 | 82.2 µM | 
O=C(O)COc1ccc(OCC(=O)O)cc1 | 24.1 µM | 3.64 µM
O=CC(O)C(O)C(O)C(O)COC(=O)NCCCCC(=O)C(F)(F)C(F)(F)C(F)(F)C(F)(F)C(F)(F)C(F)(F)C(F)(F)F (stereo not given) | > 100 µM | 
O=c1cc(-c2ccccc2)oc2c1ccc1[nH]c3ccccc3c(=O)c12 | > 100 µM | 
COc1cccc2c1OC1c3ccccc3OCC1(O)C2 (stereo not given) | > 100 µM | 
O=C1c2ccncc2C(=O)c2c(O)ccc(O)c21 | > 100 µM | 
Cc1cc(C)c2c(c1)C/C(=C\c1cccc(C)c1C(=O)O)C2=O | > 100 µM | 
Oc1cccc2c(Br)ccnc12 | 32 µM | 
O=C1C=CC2(O[C@H](C3CCCCC3)[C@@H](C3CCCCC3)O2)C(SC(=O)c2ccccc2)C1 (stereo not given in full) | 16.9 µM | 
Cc1cc2nc3ccccc3n2c2ccccc12 | > 10 µM | 
CS(=O)(=O)c1ccc(COP(N)(=O)N(CCCl)CCCl)cc1 (stereo not given) | > 100 µM | 
O=C1C(N2CCN(CCOCCO)CC2)=C(Cl)C(=O)c2ncccc21 | > 100 µM | > 100 µM
Nc1ccc2c(=O)cc(-c3ccc(Br)s3)[nH]c2n1 | > 100 µM | 
C=CC(C)(C)/C=C/c1ccc(O)cc1 | > 100 µM | 
Brc1cc(C2OCCCO2)ccc1OCc1ccccc1 | > 100 µM | 
CC(=O)c1c[nH]c2ccc(-c3ccnc(Nc4ccc(NC(=O)C5CCCC5)c(CN5CCOCC5)c4)n3)cc12 | 0.546 µM | 0.0352 µM
COC(=O)[C@@H](NS(=O)(=O)CC12CCC(CC1)C2(C)C)C(C)(C)C | > 100 µM | 
CC1=NN(c2ccccc2)C(=O)C12[C@H](c1ccccc1)C2(C#N)C#N (stereo not given in full) | 29.4 µM | 
CCC1=C(C[C@H]2NCCc3cc(OC)c(OC)cc32)C[C@H]2c3cc(OC)c(OC)cc3CCN2C1 | 0.481 µM | 
COc1ccc(N2C(=O)[C@@H](N=[N+]=[N-])[C@@H]2[C@H]2COC(C)(C)O2)cc1 | > 100 µM | 
COc1ccc(-c2cc3ccccc3[nH]c2=O)cc1OC | > 100 µM | 
CCCCCCCC(=O)[O-].CCCCCCCC(=O)[O-].N.N.N.N.[Co+3].[O-][Cl+3]([O-])([O-])[O-] | > 100 µM | > 100 µM
Cc1c(OCc2cccc3ccccc23)ccc2c(=O)cc(SCCN3CCOCC3)oc12 | > 100 µM | 
Cc1cc(C)nc(NS(=O)(=O)c2ccc(NNc3c4ccccc4nc4c(C(=O)Nc5ccc(S(=O)(=O)Nc6cc(C)on6)cc5)cccc34)cc2)n1 | > 100 µM | 

Compound | TGI | GI50
Clc1ccc(-c2nn3c(COc4cccc(OCc5nnc6sc(-c7ccc(Cl)cc7)nn56)c4)nnc3s2)cc1 | > 100 µM | 
O=c1[nH]cc(N=Cc2cc(Cl)ccc2O)c(=O)[nH]1 | > 100 µM | 
O=[N+]([O-])c1ccc(N2N=C(c3c(O)ccc4ccccc34)CC2c2ccc(Cl)cc2)c([N+](=O)[O-])c1 (stereo not given) | > 100 µM | 
CC12OC(C(=O)C13CC3)C1C(=O)c3c(O)ccc(O)c3C(=O)C12 (stereo not given) | 58.5 µM | 19.3 µM
O=C1C=C(N2CCN(c3ncccn3)CC2)C(=O)c2c(O)ccc(O)c21 | > 100 µM | 
CCCC(O)c1cn(-c2cccc(S(=O)(=O)O)c2)nn1 (stereo not given) | > 100 µM | 
CCOC(=O)c1cc2c3c(c(C(C)=O)c(OC)c2[nH]1)N(C(=O)CC)CC3 | 30.1 µM | 
CN1CCN(C(=O)c2ccc(NC(=O)Nc3ccc(-c4nc(N5CCOCC5)c5cccn5n4)cc3)cc2)CC1 | 2.22 µM | 0.0361 µM
Cc1cc(=O)[nH]c(NNC(C#N)c2ccccc2O)n1 (stereo not given) | > 100 µM | 
O=C(O)CSC1=NNC2(C(=O)N1)c1ccccc1-c1ccccc12 | > 10 µM | 
CCCCCCCCCCCNC=O | > 100 µM | 
COC(=O)C(=O)C(C(=O)C(=O)Nc1ccccc1[N+](=O)[O-])c1nc2ccc([N+](=O)[O-])cc2[nH]c1=O (stereo not given) | > 100 µM | 
COc1ccc2nc(C)cc(Sc3nc4ccccc4s3)c2c1 | 11 µM | 2.19 µM
O=C1C=CC(=O)c2c(O)c(N3CCOCC3)c(Cl)c(O)c21 | 3.14 µM | 
Oc1ccc(Cl)cc1-c1cc(-c2ccccc2)nc(=S)[nH]1 | > 100 µM | 
O=C(O)Cn1c2c(c3c1-c1ccccc1C3=O)C(=O)CCC2 | > 100 µM | > 100 µM
CC(C)(C)c1cc(OCc2nnc3sc(Cc4ccccc4)nn23)c(Cl)cc1OCc1nnc2sc(Cc3ccccc3)nn12 | > 100 µM | 
CC(C)[P+](c1ccccc1)(c1ccccc1)c1ccccc1 | > 100 µM | 32.5 µM
C=C(C(=O)OC)[C@@H]1CC2OC1C(=O)C(C)CCC/C(C)=C/CC[C@@]2(C)O (stereo not given in full) | > 100 µM | > 100 µM
COc1cc(OC)c2c(=O)cc(-c3ccccc3OCc3ccccc3)oc2c1OC | 60.4 µM | 16.2 µM
Cc1cc(Cl)cc2c1NC(=O)C2(O)CC(=O)c1ccc(Br)cc1 (stereo not given) | > 100 µM | 
CCOC(=O)C1CCC(=O)N1C(=O)c1cccc(Cl)c1 (stereo not given) | > 100 µM | 
O=c1c2ccccc2oc2ccccc12 (tested in a mixture with another compound) | > 100 µM | 
Cn1c2ccc(Cl)cc2c2ccc3c(c21)C(=O)C=CC3=O | > 10 µM | 
S=C1C(=Nc2ccccc2)N(c2ccccc2)/C(=N\c2cccc[n+]2Cc2ccccc2)N1c1ccccc1 | 55.8 µM | 
C=CC1C(CC2OC(CO)C(O)C(O)C2O)OC=C2C(=O)OCCC21O (stereo not given) | 88.7 µM | 17.7 µM

Compound | TGI | GI50
Fc1ccc2c(c1)C1=C(CCC2)C(c2ccc(Cl)cc2)NC(=S)N1 (stereo not given) | > 100 µM | > 100 µM
O=C1CC(c2cccc(Cl)c2)Oc2ccccc21 (stereo not given) | > 100 µM | 
O=C1CC(c2ccsc2)n2cccc21 (stereo not given) | > 100 µM | 
Cc1cc2c(=O)c3ccc(Cl)cc3[nH]c2c(C(N)=O)c1C | > 100 µM | 
O=S(=O)(/N=S(/Nc1ccccc1)C(F)(F)Cl)c1ccccc1 (stereo not given) | > 100 µM | 
Cc1nc2ccc(Br)cc2c(=O)n1-c1ccc(N)cc1 | > 100 µM | 
O=C1NC(=O)C(=Cc2cn(Cc3ccccc3)c3ccccc23)C(=O)N1 | > 66.7 µM | 18.8 µM
CCOC(=O)c1c(N2CCCC2)[nH]c(=O)c(C(c2ccc(N(C)C)cc2)c2c(O)c(C(=O)OCC)c(N3CCCC3)[nH]c2=O)c1O | > 100 µM | 
O=C1CS/C(=N/S(=O)(=O)c2ccc(N3N=C4c5ccccc5CC4C3c3cccs3)cc2)N1C(=O)c1ccccc1 (stereo not given) | 49.9 µM | 16.6 µM
COc1cc(C)cc(C(=O)/C=C/c2ccccc2)c1O | 47.6 µM | 
C/C(=C\Cc1ccc(F)cc1)CCCCCC/C(C)=C/Cc1ccc(F)cc1 | 68.2 µM | 
COC(=O)/C(C#N)=C1\CCC(OC)N1C (stereo not given) | > 100 µM | 
CC(C)(C)OC(=O)C(C#N)C(=O)c1ccc(C(=O)O)[nH]1 (stereo not given) | > 100 µM | 
c1ccc2c[n+](CCCC[n+]3ccc4ccccc4c3)ccc2c1 | > 100 µM | 
CC(OP(=O)(O)O)C(N)C(=O)O (stereo not given) | > 100 µM | 
Nc1c(C(=O)c2cccc(C(O)CO)c2)cnn1-c1ccc(F)cc1 (stereo not given) | > 25 µM | > 25 µM
CC/C=C/c1cc2c(cc1O)CCC1C2CC[C@@]2(C)C1CC[C@@H]2O (stereo not given in full) | 6.79 µM | 
CN1CCN=C1c1nnn(-c2ccc([N+](=O)[O-])cc2)c1-c1ccccc1 | > 100 µM | 
COc1ccc(NC(=O)CC(=O)N/N=C(\C)c2cc3ccccc3oc2=O)cc1 | > 100 µM | 
CC(/C=C/C(=O)c1sc(C(N)=S)nc1C)=C\c1ccccc1 | > 100 µM | 
N#CC1=C(N)NC(N2CCOCC2)=NC12Nc1ccccc1O2 (stereo not given) | > 100 µM | > 100 µM
Cc1cc(N2CCCCC2)nc2ccc(Cc3ccc4nc(N5CCCCC5)cc(C)c4c3)cc12 | > 100 µM | 
CCOC(=O)c1c(-c2ccccc2)[n+](=O)c2cc(F)c(F)cc2n1[O-] | 3.53 µM | 1.71 µM
C=CCC12CC(=O)CCC1c1ccc(OC)cc1C2=O (stereo not given) | > 100 µM | 
N/N=C(/N)SCCCCCCCCCCS/C(N)=N/N | > 100 µM | 
